According to the supplement of paper PMC4967469:
The IC50 comes from the fitted curve, where viability falls to half of the control; a fit beyond the top or the lowest dose is shown as a bound at that dose. AUC sums up the same curve from the lowest dose to the 256-fold higher top dose: 1 means no effect, lower means more sensitive. For part of these data: The top dose, if marked as inferred, comes from the curve model; the source does not state it. For part of these data: Drugs with an entry number were screened twice under separate entries, and the two screens often disagree.

Assays:
Assay in all cases: Viability of human cancer cell lines after 72 h of drug (GDSC screen)
Vinblastine = compound: CC[C@]1(O)C[C@@H]2CN(CCc3c([nH]c4ccccc34)[C@@](C(=O)OC)(c3cc4c(cc3OC)N(C)[C@H]3[C@@](O)(C(=O)OC)[C@H](OC(C)=O)[C@]5(CC)C=CCN6CC[C@]43[C@@H]65)C2)C1 [Vinblastine]; settings: top dose 0.1 µM; top dose inferred
Description: (§1)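 Human cancer cell lines in 384-well plates, medium with 10% serum, drug for 72 h over a 256-fold dose range (nine 2-fold or five 4-fold steps up to the top dose). Adherent lines were fixed and stained with the nucleic acid dye Syto60, suspension lines read with resazurin; signal relative to control wells, capped at 0 and 100%. One two-parameter sigmoid per drug and line, fitted in a mixed model over all curves with the slope shared within a line.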

XMD13-2 = compound: O=C(NC1CC1)c1cccc(-c2ccc3c(NC(=O)C4CC4)n[nH]c3c2)c1 [XMD13-2]; settings: top dose 10.24 µM; top dose inferred
Description: as §1

Afatinib = compound: CN(C)C/C=C/C(=O)Nc1cc2c(Nc3ccc(F)c(Cl)c3)ncnc2cc1O[C@H]1CCOC1 [Afatinib]
Description: as §1

SNX-2112 = compound: CC1(C)CC(=O)c2c(C(F)(F)F)nn(-c3ccc(C(N)=O)c(N[C@H]4CC[C@H](O)CC4)c3)c2C1 [SNX-2112]; settings: top dose 2.56 µM
Description: as §1

[1] = top dose 0.5 µM, screen: GDSC drug entry 1032
[2] = top dose 10 µM, screen: GDSC drug entry 1377, top dose inferred

| Cell Line | AUC (Vinblastine) | IC50 (Vinblastine) [nM] | AUC (XMD13-2) | IC50 (XMD13-2) [nM] | AUC (Afatinib; [1]) | IC50 (Afatinib; [1]) [nM] | AUC (Afatinib; [2]) | IC50 (Afatinib; [2]) [nM] | AUC (SNX-2112) | IC50 (SNX-2112) [nM] |
| --- | --- | --- | --- | --- | --- | --- | --- | --- | --- | --- |
| A704 (kidney, adherent) | 0.906 | > 100 | 0.989 | > 10200 | 0.981 | > 500 | 0.974 | > 10000 | 0.813 | 1330 |
| ABC-1 (lung adenocarcinoma, adherent) | 0.588 | 11.5 | 0.913 | > 10200 | 0.983 | > 500 |  |  | 0.718 | 763 |
| BALL-1 (B-cell leukaemia, suspension) | 0.509 | 6.58 |  |  | 0.996 | > 500 | 0.992 | > 10000 |  |  |
| CADO-ES1 (Ewing sarcoma, suspension) | 0.963 | > 100 | 0.932 | > 10200 | 0.977 | > 500 | 0.986 | > 10000 | 0.503 | 163 |
| CHSA0108 (chondrosarcoma, adherent) | 0.58 | 10.7 | 0.967 | > 10200 | 0.981 | > 500 | 0.966 | > 10000 | 0.984 | > 2560 |
| CL-34 (large intestine, adherent) | 0.813 | 60.9 |  |  | 0.986 | > 500 | 0.985 | > 10000 |  |  |
| CL-40 (large intestine, adherent) | 0.903 | > 100 |  |  | 0.776 | 364 | 0.817 | > 10000 |  |  |
| CML-T1 (chronic myeloid leukaemia, suspension) | 0.403 | 3.57 |  |  | 0.983 | > 500 | 0.951 | > 10000 |  |  |
| COR-L321 (lung, suspension) | 0.77 | 38 | 0.887 | > 10200 | 0.987 | > 500 | 0.988 | > 10000 | 0.58 | 264 |
| CRO-AP2 (B-cell lymphoma, suspension) | 0.203 | 0.971 |  |  | 0.959 | > 500 | 0.959 | > 10000 |  |  |
| D-423MG (glioma, adherent) | 0.562 | 9.61 | 0.891 | > 10200 | 0.952 | > 500 | 0.976 | > 10000 | 0.587 | 293 |
| D-566MG (glioma, adherent) | 0.318 | 1.96 | 0.921 | > 10200 | 0.982 | > 500 | 0.92 | > 10000 | 0.467 | 130 |
| DIFI (large intestine, adherent) | 0.656 | 17.3 |  |  | 0.23 | 4.93 | 0.146 | 46.5 |  |  |
| DOV13 (ovary, adherent) | 0.633 | 15.5 | 0.984 | > 10200 | 0.836 | 406 | 0.799 | 5680 | 0.984 | > 2560 |
| DoTc2-4510 (cervix, adherent) | 0.655 | 16.4 | 0.962 | > 10200 | 0.852 | 355 | 0.865 | 8110 | 0.593 | 283 |
| EFM-19 (breast, adherent) | 0.402 | 2.93 | 0.956 | > 10200 | 0.973 | > 500 | 0.939 | > 10000 | 0.932 | > 2560 |
| EFO-21 (ovary, adherent) | 0.87 | > 100 | 0.925 | > 10200 | 0.949 | > 500 | 0.933 | > 10000 | 0.9 | > 2560 |
| EMC-BAC-1 (lung adenocarcinoma, adherent) | 0.439 | 4.16 | 0.828 | 7580 | 0.533 | 38.9 | 0.343 | 215 | 0.685 | 571 |
| EMC-BAC-2 (lung adenocarcinoma, adherent) | 0.414 | 3.48 | 0.829 | 8020 | 0.914 | > 500 | 0.933 | > 10000 | 0.467 | 128 |
| ESO26 (oesophagus, adherent) | 0.643 | 15.2 | 0.917 | > 10200 | 0.727 | 132 | 0.747 | 3040 | 0.204 | 22.9 |
| ESO51 (oesophagus, semi-adherent) | 0.705 | 30.4 | 0.925 | > 10200 | 0.968 | > 500 | 0.965 | > 10000 | 0.37 | 60.4 |
| EW-22 (Ewing sarcoma, adherent) | 0.722 | 25.8 |  |  | 0.986 | > 500 | 0.945 | > 10000 |  |  |
| FLO-1 (oesophagus, adherent) | 0.506 | 6.52 | 0.925 | > 10200 | 0.929 | > 500 | 0.895 | > 10000 | 0.662 | 556 |
| HCC-366 (non-small cell lung carcinoma, adherent) | 0.728 | 28.8 |  |  | 0.987 | > 500 | 0.981 | > 10000 |  |  |
| Hey (ovary, adherent) | 0.328 | 2.14 | 0.882 | 9760 | 0.988 | > 500 | 0.918 | > 10000 | 0.398 | 85.4 |
